Among all 48,000 compounds or so, about 120 (0.25%) were called active. Inconclusive results (about 4%) are left out. Calls follow the shape of the dose curve; as a rule, active = well fitted activation curve with a large enough effect; inconclusive = small, poorly fitted or top-dose-only effect, or another doubt; inactive = no such curve, though single readings can be large or run the other way. Some of the results follow.
Test: Primary qHTS for Identification of Small Molecule Activators of Huntingtin-Antisense Promoter Activity; also: nearly all actives have a fitted effect of over 55% in size
Conditions: HEK293 HTT-AS promoter firefly luciferase reporter, 24 h; series mostly up to 57.5 µM; activity change, positive = activation: at the top concentration
From the text: Assay Provider: Russell L. Margolis M.D.
Department Neurology, Johns Hopkins University School of Medicine, Baltimore, MD
Huntington's Disease (HD) is a neurodegenerative disorder caused by a CAG repeat expansion in exon 1 of huntingtin (HTT). While there are currently no disease-modifying treatments for HD, recent efforts have focused on development of nucleotide-based therapeutics to lower HTT expression. As an alternative to siRNA or oligonucleotide methods, we hypothesized that suppression of HTT expression might be accomplished by small molecules that either (1) directly decrease HTT expression by suppressing HTT promoter activity or (2) indirectly decrease HTT expression by increasing the promoter activity of HTT-AS, the gene antisense to HTT that appears to inhibit expression of HTT.
We developed and employed a high throughput screen for modifiers of HTT and HTT-AS promoter activity using luminescent reporter HEK293 cells; of the 52,041 compounds tested, we identified 898 replicable hits. We used a rigorous stepwise approach to assess compound toxicity and the capacity of the compounds to specifically lower huntingtin protein in 5 different cell lines, including HEK293 cells, HD lymphoblastoid cells, mouse primary neurons, HD iPSCs differentiated into cortical-like neurons, and HD hESCs. We found no compounds which were able to lower huntingtin without lowering cell viability in all assays, though the potential efficacy of a few compounds at non-toxic doses could not be excluded.
SEQUENCE No. (1, 2, 3, etc.); […] (e.g., Cells, Incubation, Reagent, etc.); VALUE and DESCRIPTION.
1; Reagent; 4 uL; 2,500 Hek293 luciferase reporter cells per wells
3; Compound; 23 nL; Control inhibitor / compound library
5; Reagent; 2.5 uL; Firefly Luc reagent; Dual-Glo Luciferase Reporter Assay System (Promega)
6; Time; 10 min; room temperature incubation
7; Detection; Luminescence; FLuc
NOTES (numbers refer to sequence above)
1; High-throughput screening, measuring luminescence from a Hek293 luciferase reporter, was performed in 1,536 well white-walled tissue-culture treated plates. 2,500 cells were plated in 4 µL of Opti-MEM per well using a Multidrop Combi Reagent Dispenser (ThermoFisher).
2; Assay plates were cultured for 24 hours.
3; Control inhibitor (PTC124; final concentration of 50 uM) and compound library (at final concentrations of 460 nM - 57.5 uM) were added to the assay plate using the Kalypsis Pintool Robotic System equipped with 1536 pinheads.
4; Cells were then incubated for 24 hours at 37 degrees C prior to luminescence measurements.
5; In all cases, luminescence was measured using the Dual-Glo Luciferase Reporter Assay System (Promega) following the manufacturer's instructions.
6; Room temperature incubation.
7; Luminescence signal was obtained using the PerkinElmer ViewLux plate reader. Results were normalized to vehicle control (0% activity) and zero RLU (-100% activity).

Activity change, positive = activation, inactive:
CCN(C(=O)CCS(=O)(=O)c1cc2[nH]c(=O)c(=O)[nH]c2cc1C)c1ccccc1 -7.74%
Cc1ccc2c(c1)C(=O)OC(C(=O)Nc1ncc(Cc3ccc(C(C)C)cc3)s1)C2 (stereo not given) 0.0539%
O=C(NCCc1ccc(F)cc1)C(=O)NCC(c1cccs1)S(=O)(=O)c1ccc(F)cc1 (stereo not given) -42.8%
Cc1ccc2sc(N3CCN(C(=O)CCS(=O)(=O)c4ccc(Cl)cc4)CC3)nc2c1C -0.215%
Cc1ccc(-c2cn3nc(N4CCCC(C(=O)Nc5ccc(F)cc5)C4)sc3n2)cc1 (stereo not given) -44%
CCCN(CCC)C(=O)Cn1c(=O)n(-c2cccc(OC)c2)c(=O)c2c(C)c(C(=O)N(C)C)sc21 7.28%
Cc1ccc(N(CC(=O)N2CCN(c3ccc(Cl)cc3)CC2)S(=O)(=O)c2c(C)nn(C)c2C)cc1 -9.7%
CCC(Sc1nc2ncccc2[nH]1)C(=O)Nc1cccc(OC)c1 (stereo not given) -11.4%
COC(=O)c1c(NC(=O)CCCOc2ccc(C(C)(C)C)cc2)sc2c1C(C(=O)OC)CC2 (stereo not given) -43.7%
COc1ccc(N2CCN(C(=O)CCn3c(=O)[nH]c4cc(OC)c(OC)cc4c3=O)CC2)cc1 1.61%
CCc1ccc(CNC(=O)C(C)n2ccc3cc(S(=O)(=O)N4CCCCCC4)ccc32)cc1 (stereo not given) 0%
Cc1cccc(NC(=O)CCS(=O)(=O)c2cccc3nsnc23)c1C -8.85%
COc1cccc(C(=O)NCCc2csc(-c3ccc(Cl)cc3)n2)c1 -25.6%
Cc1ccc(NC(=O)C2CCN(S(=O)(=O)c3ccc4[nH]c5c(c4c3)CCCCC5)CC2)cc1 -25.9%
CCOC(=O)CSC1=Nc2ccccc2C2=NC(CCC(=O)NCc3ccc(F)cc3)C(=O)N12 (stereo not given) 8.05%
O=C(NCc1cccc(F)c1)C1CCCN(C(=O)N2CCOc3ccccc32)C1 (stereo not given) -10.1%
CC1CN(C(=O)N2CCC(C(=O)NCc3cccs3)CC2)c2cc(Cl)ccc2O1 (stereo not given) -19.4%
COC(=O)c1cc2sc(Cl)cc2n1Cc1c(C)cc(C)cc1C 11%
COc1ccc(-c2c(C)c3ccc(O)c(CN4CCOCC4)c3oc2=O)cc1 -0.803%
CCn1c2ccccc2c2cc(NC(=O)COc3ccc(C)cc3C)ccc21 6.47%
COc1ccc(OC)c(CNC(=O)c2ccc(C)c(NC(=O)c3nsc4ccccc34)c2)c1 22.3%
CCCCNC(=O)C1CCN(S(=O)(=O)CCC)CC1 -15.6%
Cc1ccc(Cn2c(CNS(=O)(=O)c3cccc([N+](=O)[O-])c3)nc3cccnc32)cc1 -24.6%
CCOc1ccc(OCC)c(NS(=O)(=O)c2cc(-c3cnc(C)o3)ccc2OC)c1 -8.97%
COc1ccc(-c2cc(C)no2)cc1S(=O)(=O)Nc1c(C)cc(C)cc1C -27.9%
COc1ccc(OC)c(NC(=O)c2c(N3CCCC3=O)c3cc(OC)ccc3n2C)c1 0.319%
Cc1nc2nncn2c(Nc2ccccc2)c1C -27.5%
CCc1nn2c(=O)cc(COC(=O)c3cccc(NC(=O)c4cccs4)c3)nc2s1 14.4%
CCOC(=O)c1c(-c2ccccc2)csc1NC(=O)c1cc(=O)c2ccc(C)cc2o1 11.1% [at 11.5 µM, percent change from vehicle, -100% = no light]
Cc1ccccc1-n1nc(CO)c(C(=O)NCc2cccnc2)n1 -1.24%
CCc1cccc(C)c1NC(=O)Cn1cnc2c1c(=O)n(C)c(=O)n2C -30.1%
COCCNC(=O)Nc1cc(C(=O)NCc2ccc(C(C)C)cc2)ccc1N1CCCC1 -7.06%
COc1cc(C2NC(=O)c3c(sc4c3CCN(C)C4)N2)cc(Br)c1OC(=O)c1ccc(C)cc1 (stereo not given) -11.9%
CCOC(=O)C1CCN(C(c2ccc(SC)cc2)c2c(O)cc(C)n(Cc3ccco3)c2=O)CC1 (stereo not given) -8.45%
Cc1cccc(N2CCN(C(=O)C3CCCN(S(=O)(=O)c4ccc5c(c4)oc(=O)n5C)C3)CC2)c1C (stereo not given) -45.3%
Cc1ccc(-n2ncc(C(=O)NCc3cccs3)c2C2CCN(C(=O)OC(C)(C)C)CC2)cc1 -41.6%
Cc1ccc(CNC(=O)CN2C(=O)CCn3nc(-c4ccccc4)cc32)cc1 -19.8%
COc1ccccc1NC(=O)C(C)Sc1nnc2ccc3ccccc3n12 (stereo not given) -6.7%
Clc1ccc2c(c1)C(N1CCNCC1)=Nc1ccccc1O2 -11.6%
CCc1cccc2c(-c3ccccc3)nc(SCC(=O)Nc3ccccc3OC)nc12 -9.67%
CCCCC/C(C=O)=C\c1ccccc1 2.75%
CCCn1c(=O)c2sccc2n2c(CCCC(=O)NC3CCC(C)CC3)nnc12 (stereo not given) 2.56%
CCCCOc1ccc(C(=O)NCCc2csc(-c3cccc(F)c3)n2)cc1 -23.3%
CCc1ccccc1NC(=O)C1CCN(S(=O)(=O)c2ccccc2)CC1 0.992%
COc1ccc(CNC(=O)C(C)Sc2nc(-c3ccccc3)cc(C(F)(F)F)n2)cc1 (stereo not given) -21.7%
O=C(Cn1ccnc1[N+](=O)[O-])NCc1ccccc1 4.45%
COc1ccc(OCC(=O)N2CCC(c3nc4ccccc4s3)CC2)cc1 -18.8%
CCCCOc1ccc(C(=O)Nc2ccc3oc(-c4cccnc4)nc3c2)cc1 -11.6%
O=C(NC1CCCC1)c1ccc(CSc2nc3ccncc3n2Cc2cccc(F)c2)cc1 -21.7%
CCOc1cc(C(=O)NCc2ccc3c(c2)CCN3C(=O)c2ccc(F)cc2)cc(OCC)c1OCC -19.1%
O=C1c2ccccc2C(=O)C1c1ccccc1 -0.558%
Cc1ccc(CNC(=O)c2ccc3c(c2)c(C)c(C)n3Cc2ccccc2)o1 -19.1%
O=C(COc1ccccc1Cl)OCc1cc(=O)n2nc(C3CCCCC3)sc2n1 2.9%
CCn1ccc2cc(S(=O)(=O)N3CCC(C(=O)NCCc4ccccc4Cl)CC3)ccc21 -18.8%
CCc1ccc(C(=O)c2cnc3ccc(F)cc3c2S(=O)(=O)c2ccccc2)cc1 -48.1%
Cc1cccc(C(=O)Nc2ccc(-c3nc4ncccc4o3)cc2C)c1 21.9%
CC(C)OCCCNC(=O)c1cn(C)c2ccc(S(=O)(=O)N3CCCCCC3)cc2c1=O 6.29% [at 11.5 µM, percent change from vehicle, -100% = no light]
O=C(O)CCCc1c[nH]c2ccccc12 -17%
Cc1cccc(S(=O)(=O)c2cn(Cc3ccccc3)c3cc(N4CCOCC4)c(F)cc3c2=O)c1 -22%
COc1ccccc1Cn1cc(C(=O)c2ccc(Cl)cc2)c(=O)c2ccccc21 -60.4%
Cc1c2cnn(CC(=O)NCC(C)c3ccccc3)c(=O)c2c(C)n1Cc1cccc(Cl)c1 (stereo not given) -22.2%
Cc1ccc(C)c(NC(=O)Cn2nnc(C(=O)NCc3ccccc3Cl)c2N)c1 -9.11%
COc1cccc(C2NC(=O)c3n[nH]c(-c4cccs4)c32)c1 (stereo not given) -16%
COc1ccc(Br)cc1CNC(=O)c1cnc2sc(N3CCCC3)nn2c1=O -1.13%
CN1CCN(C(CNC(=O)c2ccccc2F)c2ccc3c(c2)OCO3)CC1 (stereo not given) -8.49%
O=C(Cn1c(=O)nc(-c2ccccc2)c2ccccc21)NCCc1ccc(Cl)cc1 -0.284%
COc1ccc(C(=O)N(Cc2cc(OC)c(OC)c(OC)c2)c2ccccn2)cc1 -25.8%
Cc1cc2[nH]c(=O)c(=O)[nH]c2cc1S(=O)(=O)N1CCN(c2cccc(C(F)(F)F)c2)CC1 1.39%
CCCCN(CC)CCNC(=O)CCn1cnc2onc(-c3ccc(F)cc3)c2c1=O -24%
COc1ccc(NC(=O)c2sc3nc(-c4cc5ccc(OC)cc5oc4=O)[nH]c(=O)c3c2C)cc1 -9.56%
Cc1cccc(-n2cc(-c3ccccc3)c3c(N4CCC(C)CC4)ncnc32)c1 -17.3%
COc1ccc(-c2cn3nc(N4CCCC(C(=O)Nc5cc(C)ccc5C)C4)sc3n2)cc1 (stereo not given) -13.5%
COc1cc(NC(=O)NCC2CCN(Cc3ccccc3Cl)CC2)cc(OC)c1OC 0.552%
O=C(O)CCc1nc(-c2ccccc2)c(-c2ccccc2)o1 -32%
COc1ccc(OC)c(CCNC(=O)CCc2cn(Cc3cc(C)ccc3C)c3ccccc23)c1 -28.6%
O=C(Cn1c(=O)c2cccn2c2ccc(F)cc21)N1CCN(c2ccccc2F)CC1 -12.4%
Cc1ccc(Cl)cc1NS(=O)(=O)c1ccc2c(c1)NC(=O)CCS2 -26.7%
CC(C)Nc1cc(C(F)(F)F)cc2nc(NC(=O)c3cccnc3)nn12 -9.33%
Cc1ccc(CNC(=O)c2c(Nc3ccccc3C)sc(C(=O)c3ccc(F)cc3)c2N)cc1 -27.2%
COc1ccc(CC(=O)NCC(c2cccs2)S(=O)(=O)c2ccc(F)cc2)cc1 (stereo not given) -18%
COc1cccc(-c2nn(C)c3sc(C(=O)NCc4ccc(OC)cc4OC)cc23)c1 0%
Cc1ccc(C(=O)N(Cc2ccco2)c2ccccn2)cc1 23.2%
COc1cc(NC(=O)c2nn(C)c3c2COc2ccccc2-3)cc(OC)c1OC -5.65%
CCOc1ccccc1NC(=O)C1=C(C)Nc2ncnn2C1c1ccco1 (stereo not given) -8.75%
COc1ccc(CCNC(=O)c2ccc(Cn3c(SCc4ccccc4)nc4cccnc43)cc2)cc1 -25.2%
CCc1cnc2c(c1SC(C(C)=O)C(=O)N(C)C)c(=O)n(C)c(=O)n2C (stereo not given) -5.98%
CC(C)c1cc(-c2nc(-c3ccc(Cl)cc3)no2)n[nH]1 15.5%
O=C(CCn1c(=O)c2ccccc2n(CC(=O)Nc2ccc(F)cc2)c1=O)NCCc1ccccc1 -12.4%
CCc1ccc(C2CC(=O)Nc3c2c(=O)nc2c(C)cccn32)cc1 (stereo not given) -8.88%
Cc1cccc(NC(=O)Cn2c(=O)n(Cc3ccccc3)c(=O)c3oc4ccccc4c32)c1C -11.6%
CC(C)c1ccc(NC(=O)c2ccc(CN3CC(=O)N4CCCCC4C3=O)cc2)cc1 (stereo not given) -3.05%
COc1ccccc1C(=O)Nc1ccc(C(=O)OCc2cc(=O)n3c4c(sc3n2)CCCC4)cc1 -2.29%
Cc1ccc(CNC(=O)c2c(Nc3c(C)cccc3C)sc(C(=O)c3ccccc3)c2N)cc1 -24.4%
CCOc1ccc(C2C(C(N)=O)=C(C)Nc3nc(SCc4ccccc4F)nn32)cc1 (stereo not given) -6.62%
COc1ccccc1NC(=O)c1cnn(-c2ccccc2)c1-n1cccc1 -10.4%
